Data as given in the supplement of paper PMC9446081.
Hit rate of the full screen: of about 39,000 compounds, about 220 (0.56%) showed activity. This is one part of the list.

tested on: Escherichia coli K-12 BW25113; assay: relative growth (OD600 normalised to plate interquartile mean) (fraction); higher = less growth inhibition, active = 0.2 or less; conditions: 50 µM; LB; incubation time: overnight (16-24 h)
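Further: static incubation at 37 °C against the wild-type strain, values averaged over two biological replicates.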

Compound	relative growth
C[C@H](CO)N1C[C@H](C)[C@H](CN(C)CC2CC2)Oc2ccc(NS(=O)(=O)c3ccc(F)cc3)cc2C1=O	inactive: 0.992
C[C@H](CO)N1C[C@H](C)[C@H](CN(C)C(=O)Cc2cccnc2)Oc2ncc(C#CC3(O)CCCC3)cc2C1=O	inactive: 1
CO[C@@H]1CN(C)C(=O)c2ccc(NC(=O)C3CC3)cc2OC[C@@H](C)N(C(=O)Nc2ccc(C(F)(F)F)cc2)C[C@H]1C	inactive: 0.941
O=C(O)C[C@@H](NCCN[C@H](CC(=O)O)C(=O)O)C(=O)O	inactive: 0.991
C[C@@H]1CN([C@@H](C)CO)C(=O)Cc2cc(NC(=O)Nc3ccc(F)cc3)ccc2O[C@@H]1CN(C)Cc1ccc(C(F)(F)F)cc1	inactive: 1.03
CCS(=O)(=O)Nc1ccc2c(c1)C(=O)N(C)[C@H]1CC[C@H](CC(=O)NCCOC)O[C@@H]1CO2	inactive: 0.971
COc1ccc(S(=O)(=O)Nc2ccc3c(c2)CC(=O)N([C@H](C)CO)C[C@H](C)[C@H](CN(C)S(=O)(=O)c2c(C)noc2C)O3)cc1	inactive: 0.993
O=C(C[C@H]1CC[C@@H]2[C@H](COC[C@H](O)CN2C(=O)Nc2cccc(F)c2)O1)NCCCN1CCOCC1	inactive: 0.918
C[C@@H]1CN([C@H](C)CO)C(=O)Cc2cc(NC(=O)Cn3cnnn3)ccc2O[C@H]1CN(C)Cc1ccc(Cl)c(Cl)c1	inactive: 0.946
NC1CCC(c2ccccc2)CC1 (stereo not given)	inactive: 0.987
C[C@@H]1CN([C@H](C)CO)C(=O)c2cc(NC(=O)NC3CCCCC3)ccc2O[C@@H](C)CCCCO[C@@H]1CN(C)C(=O)NC1CCCCC1	inactive: 1.03
C[C@@H]1CN([C@H](C)CO)C(=O)c2cc(NC(=O)C3CC3)ccc2O[C@H]1CN(C)C(=O)NC1CCCCC1	inactive: 0.992
COc1ccc(S(=O)(=O)N(C)C[C@@H]2Oc3c(NC(=O)c4cc(C)nn4C)cccc3C(=O)N([C@H](C)CO)C[C@H]2C)cc1	inactive: 1.02
C[C@H]1CN([C@@H](C)CO)C(=O)c2cccc(NC(=O)C3CCOCC3)c2O[C@@H]1CN(C)Cc1ccc(Oc2ccccc2)cc1	inactive: 1.02
CC(C)NC(=O)N(C)C[C@@H]1Oc2c(NS(=O)(=O)c3ccccc3)cccc2C(=O)N([C@H](C)CO)C[C@@H]1C	inactive: 0.99
C[C@H]1CN([C@@H](C)CO)S(=O)(=O)c2ccc(Br)cc2O[C@H]1CN(C)C(=O)c1cnccn1	inactive: 0.992
Cc1ccc(S(=O)(=O)NCC[C@H]2CC[C@H](NS(=O)(=O)c3ccccc3Cl)[C@H](CO)O2)cc1	inactive: 0.96
[O-][NH2+]N1CCCC1	inactive: 1.04
CCOC(=O)c1ccc(N2NC(=O)/C(=C/c3ccc([N+](=O)[O-])o3)C2=O)cc1	inactive: 0.984
NCC1OC(OC2C(N)CC(N)C(OC3OC(CO)C(O)C(N)C3O)C2O)C(O)C(O)C1O.O=S(=O)(O)O (stereo not given)	inactive: 0.982

Compound	relative growth
C[C@@H]1CN([C@H](C)CO)C(=O)c2cccc(NS(=O)(=O)c3ccc(F)cc3)c2O[C@@H]1CN(C)Cc1ccc(Cl)c(Cl)c1	inactive: 1.01
C=CC[C@@H](CC(=O)NCCO)C(=O)N[C@H](COC(=O)[C@H](CC=C)CC(=O)OC(C)(C)C)Cc1ccccc1	inactive: 0.964
C[C@@H]1CN([C@H](C)CO)C(=O)c2cc(C#CCN(C)C)cnc2O[C@H]1CN(C)S(C)(=O)=O	inactive: 0.998
C[C@H](CO)N1C[C@H](C)[C@@H](CN(C)Cc2ccc(Cl)c(Cl)c2)OCCCC[C@H](C)Oc2ccc(NC(=O)Nc3ccc(C(F)(F)F)cc3)cc2C1=O	inactive: 0.985
Cc1noc(C)c1NC(=O)N(C)C[C@@H]1OCCCC[C@H](C)Oc2ccc(NC(=O)CCC(F)(F)F)cc2C(=O)N([C@@H](C)CO)C[C@H]1C	inactive: 0.998
C[C@@H]1CN([C@H](C)CO)C(=O)c2cccc(NC(=O)C3CC3)c2O[C@H]1CN(C)S(=O)(=O)c1ccccc1	inactive: 0.983
C[C@@H]1CN([C@@H](C)CO)C(=O)Cc2cc(NC(=O)Nc3ccc(C(F)(F)F)cc3)ccc2O[C@H]1CN(C)C(=O)Nc1ccc(F)cc1	inactive: 1.01
CN1C(=O)c2cc(NC(=O)C3CCCC3)ccc2OC[C@H]2O[C@@H](CC(=O)NCCc3ccncc3)CC[C@@H]21	inactive: 0.982
Cc1noc(C)c1NC(=O)Nc1ccc2c(c1)CC(=O)N([C@@H](C)CO)C[C@@H](C)[C@@H](CN(C)C(=O)NC(C)C)O2	inactive: 0.98
C[C@@H]1CN([C@H](C)CO)C(=O)c2cc(NS(=O)(=O)c3cccs3)ccc2O[C@@H](C)CCCCO[C@H]1CN(C)Cc1ccccc1	inactive: 0.995
Cc1ccc(S(=O)(=O)Nc2ccc3c(c2)C(=O)N([C@H](C)CO)C[C@@H](C)[C@@H](CN(C)C(=O)Nc2cccc4ccccc24)OCCCC[C@@H](C)O3)cc1	inactive: 1.03
COc1ccc(CN(C)C[C@H]2OCCCC[C@H](C)Oc3ccc(NC(=O)Nc4ccccc4)cc3C(=O)N([C@@H](C)CO)C[C@H]2C)cc1	inactive: 0.899
COCC(=O)N1C[C@]2(C1)CN([C@@H](CO)c1c2c2ccc(cc2n1C)OC)C(=O)CN1CCOCC1	inactive: 1.02
C[C@@H]1CCCCO[C@H](CN(C)C(=O)NC2CCCCC2)[C@H](C)CN([C@H](C)CO)C(=O)c2cc(NC(=O)Nc3ccc(C(F)(F)F)cc3)ccc2O1	inactive: 1
C[C@@H]1COS(=O)(=O)N1	inactive: 1.01
C[C@@H]1CCCCO[C@@H](CN(C)S(=O)(=O)c2cccs2)[C@@H](C)CN([C@@H](C)CO)C(=O)c2cc(NC(=O)Nc3ccc(F)cc3)ccc2O1	inactive: 0.978
O=C(C[C@H]1CC[C@@H]2[C@H](COC[C@H](O)CN2S(=O)(=O)c2ccccc2F)O1)NCc1ccccc1Cl	inactive: 0.992
C[C@@H]1CCCCO[C@@H](CN(C)C(=O)Cc2ccccc2)[C@H](C)CN([C@@H](C)CO)C(=O)c2cc(NC(=O)c3ccccc3)ccc2O1	inactive: 0.969
C[C@H](CO)N1C[C@H](C)[C@@H](CN(C)Cc2ccccc2)OCCCC[C@H](C)Oc2ccc(NC(=O)Nc3ccc(C(F)(F)F)cc3)cc2C1=O	inactive: 0.998
COc1cccc(C#Cc2ccc3c(c2)O[C@@H](CN(C)C(=O)CN2CCOCC2)[C@H](C)CN([C@@H](C)CO)S3(=O)=O)c1	inactive: 1.02

Compound	relative growth
COc1ccccc1CNC(=O)C[C@@H]1C[C@H]2c3cc(NC(=O)c4cccnc4)ccc3O[C@H]2[C@@H](CO)O1	inactive: 0.977
COc1cc2c(cc1OC)-c1c(oc3c4c(ccc3c1=O)OC(C)(C)C=C4)CO2	inactive: 1.11
C[C@@H]1CN([C@@H](C)CO)S(=O)(=O)c2ccc(C#Cc3cccnc3)cc2O[C@H]1CN(C)C(=O)Nc1ccc2c(c1)OCO2	inactive: 1
COc1ccc(S(=O)(=O)N(C)C[C@H]2Oc3c(cccc3N(C)C)C(=O)N([C@@H](C)CO)C[C@H]2C)cc1	inactive: 0.994
C[C@@H]1CN([C@@H](C)CO)C(=O)Cc2cc(NC(=O)Cc3cn(C)c4ccccc34)ccc2O[C@H]1CN(C)S(=O)(=O)c1cn(C)cn1	inactive: 1.02
C[C@H]1CCCCO[C@H](CN(C)Cc2ccc(C(=O)O)cc2)[C@@H](C)CN([C@@H](C)CO)C(=O)c2cc(NC(=O)Nc3cccc4ccccc34)ccc2O1	inactive: 1.01
Cn1c(=O)c2c(ncn2CC(=O)Nc2nc3ccccc3[nH]2)n(C)c1=O	inactive: 0.996
c1ccc2c(c1)Cc1cccnc1-2	inactive: 0.979
COc1ccc(NC(=O)Nc2ccc3c(c2)C(=O)N([C@H](C)CO)C[C@H](C)[C@H](CN(C)Cc2ccc(C(F)(F)F)cc2)OCCCC[C@H](C)O3)cc1	inactive: 0.999
C[C@@H]1CN([C@H](C)CO)S(=O)(=O)c2ccc(C#CC3(O)CCCC3)cc2O[C@@H]1CN(C)C(=O)c1ccncc1	inactive: 1.03
C[C@@H]1CN([C@H](C)CO)C(=O)c2cc(NS(=O)(=O)c3cn(C)cn3)ccc2O[C@@H]1CN(C)Cc1ccc(C(=O)O)cc1	inactive: 0.981
C[C@@H]1CCCCO[C@@H](CN(C)C(=O)Nc2ccc(C(F)(F)F)cc2)[C@@H](C)CN([C@H](C)CO)C(=O)c2cc(N(C)C)ccc2O1	inactive: 0.984
O=C1c2ccccc2-c2nc(-c3ccccc3)cc3cccc1c23	inactive: 0.98
C[C@H](CO)N1C[C@H](C)[C@@H](CN(C)C(=O)Nc2ccccc2)OCCCC[C@H](C)Oc2ccc(NS(=O)(=O)c3ccc(Cl)cc3)cc2C1=O	inactive: 1
COc1cccc(C(=O)c2ccccc2)c1	inactive: 0.849
C[C@@H]1CCCCO[C@H](CN(C)Cc2ccc3c(c2)OCO3)[C@H](C)CN([C@H](C)CO)C(=O)c2cc(NC(=O)C3CCCCC3)ccc2O1	inactive: 1.03
CCC(C)(C)C(=O)C(=O)N1CCCC[C@H]1C(=O)O[C@@H](CCc1ccc(OC)c(OC)c1)c1cccc(OCC(=O)NCCc2ccc(O)cc2)c1	inactive: 1.02
C[C@@H]1CN([C@H](C)CO)C(=O)c2cccc(NC(=O)Nc3ccc(C(F)(F)F)cc3)c2O[C@@H]1CN(C)CC1CCCCC1	inactive: 0.966
C[C@H]1CN([C@@H](C)CO)C(=O)CCCn2cc(nn2)CO[C@@H]1CN(C)C(=O)Nc1ccnc(N2CCOCC2)c1	inactive: 0.989
CN(C)CC(=O)N1CC(=O)N2[C@H](CO)[C@@H](c3ccc(C#Cc4cccnc4)cc3)[C@H]2C1	inactive: 0.995
